{"source": "PubChem BioAssay AID588342", "about": "(National Center for Advancing Translational Sciences (NCATS), 2011)", "note": "Screen size: about 360,000 compounds; about 25,000 (6.9%) were called active. Inconclusive results, whose numbers are uncertain, are shown with a selection of clear calls. The call rests on the fitted dose curve; in most records, active means well fitted inhibition curve with a large enough effect; inconclusive means small, poorly fitted or top-dose-only effect; inactive means flat fitted curve, though single readings scatter. A potency beside an inconclusive call is a rough fit, not a confirmed value.", "data": [{"target": "Luciferin 4-monooxygenase (Photinus pyralis) (UniProt P08659)", "sequence (P08659 whole entry, looked up)": "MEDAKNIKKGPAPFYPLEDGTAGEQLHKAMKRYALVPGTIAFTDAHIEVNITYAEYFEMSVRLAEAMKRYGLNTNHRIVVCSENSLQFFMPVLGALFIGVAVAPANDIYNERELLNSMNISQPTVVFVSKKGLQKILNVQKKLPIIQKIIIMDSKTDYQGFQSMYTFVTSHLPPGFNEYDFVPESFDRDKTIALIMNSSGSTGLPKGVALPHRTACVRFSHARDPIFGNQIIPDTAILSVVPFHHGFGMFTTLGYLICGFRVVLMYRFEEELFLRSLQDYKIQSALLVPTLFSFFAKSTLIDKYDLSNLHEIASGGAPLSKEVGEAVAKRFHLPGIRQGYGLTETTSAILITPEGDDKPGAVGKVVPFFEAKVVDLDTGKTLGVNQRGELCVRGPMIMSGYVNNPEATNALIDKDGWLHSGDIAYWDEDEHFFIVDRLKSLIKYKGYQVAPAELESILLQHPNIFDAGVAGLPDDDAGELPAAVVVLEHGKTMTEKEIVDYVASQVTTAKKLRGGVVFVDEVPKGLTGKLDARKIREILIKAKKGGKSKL", "experiment": "qHTS profiling assay for firefly luciferase inhibitor/activator using purifed enzyme and Km concentrations of substrates (counterscreen for miR-21 project); further: nearly all actives have a fitted effect of over 55% in size; further: potency means the concentration at half of the fitted maximal effect; tags describe the fitted curve by direction and shape;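 on activity change, negative = inhibition: plate controls were vehicle for no effect and reference inhibitor for full effect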", "conditions": "purified FLuc, luminescence inhibition; activity change, negative = inhibition: at 57.5 µM (top of the series)", "procedure,_shortened": "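Purified P. pyralis luciferase, 10 nM final, with Km-level 10 uM D-luciferin and 10 uM ATP in 50 mM Tris acetate pH 7.5, 10 mM Mg acetate, 0.01% Tween-20, 0.05% BSA; 6-point qHTS titration about 60 µM downward; luminescence read.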", "values": [{"molecule": "Cc1[nH]c2ccccc2c1C1(O)C(=O)N(Cc2ccccc2)c2ccc(Br)cc21", "note": "(stereo not given)", "activity change, negative = inhibition": "inactive: -8.96%"}, {"molecule": "O=C(/C(C=Nc1cccc(C(F)(F)F)c1)=C(/O)c1ccco1)C(F)(F)F", "Potency": "active: 23.9 µM"}, {"molecule": "O=c1[nH]c(SCc2nc3c(cnn3-c3ccccc3)c(=O)[nH]2)nc2ccccc12", "Potency": "inconclusive: 6.75 µM [inhibitor, partial curve]"}, {"molecule": "O=C(N=Nc1c(O)[nH]c2ccccc12)c1cc(-c2cccs2)[nH]n1", "Potency": "active: 12 µM"}, {"molecule": "Cc1ccc(-n2nc(C)c(C(=O)N3CCN(C(=O)c4ccco4)CC3)c2-n2cccc2)cc1", "activity change, negative = inhibition": "inactive: 1.51%"}, {"molecule": "Cc1cccc(NC(=O)CSc2nc(=O)n(CCN3CCOCC3)c3c2CCC3)c1", "activity change, negative = inhibition": "inactive: 1.39%"}, {"molecule": "CC(NC(=O)CN1C(=O)NC(C)(c2cccc3ccccc23)C1=O)c1ccccc1", "note": "(stereo not given)", "activity change, negative = inhibition": "inactive: 2.84%"}, {"molecule": "Cc1ccsc1-c1ccnc(-n2cccc2)n1", "Potency": "inconclusive: 21.3 µM [inhibitor, partial curve]"}, {"molecule": "O=C(O)c1cc(-c2c[nH]c3ccccc23)nc2cc3ccccc3cc12", "Potency": "active: 0.675 µM"}, {"molecule": "Cc1ccc2nc(-c3ccc(N4CCOCC4)cc3)c(Nc3ccccc3C)n2c1", "Potency": "active: 1.9 µM"}, {"molecule": "CC(=O)[C@@H]1[C@@H](C(=O)c2ccc(C)cc2)[C@]2(C(=O)Nc3ccccc32)[C@H]2C=Cc3cc(F)ccc3N12", "Potency": "inconclusive: 33.8 µM [inhibitor, partial curve, poor fit]"}, {"molecule": "O=C(Nc1ccc2c(c1)CCC2)c1ccc(Br)o1", "Potency": "active: 6.75 µM"}, {"molecule": "O=C(NCC1CCOCC1)C1CCC(=O)N(Cc2cccc(C(F)(F)F)c2)C1", "note": "(stereo not given)", "activity change, negative = inhibition": "inactive: -1.03%"}, {"molecule": "c1ccn2c(SCc3ccc4c(c3)OCO4)nnc2c1", "Potency": "inconclusive: 37.9 µM [inhibitor, partial curve, poor fit]"}, {"molecule": "CCOc1ccc(CCNC(=O)c2ccc(=O)[nH]c2)cc1OCC", "activity change, negative = inhibition": "inactive: 2.7%"}, {"molecule": "Cc1cc(C(=O)Cn2cc(C(F)(F)F)ccc2=O)c(C)n1-c1ccccc1", "Potency": "inconclusive: 37.9 µM [inhibitor, partial curve, poor fit]"}, {"molecule": "O=C(Cc1ccc(Cl)cc1)NCc1ccccc1Cl", "Potency": "inconclusive: 30.1 µM [inhibitor, partial curve, poor fit]"}, {"molecule": "O=C(Nc1ccc(OC(F)F)cc1)c1cc(S(=O)(=O)N2CCCCC2)ccc1N1CCOCC1", "activity change, negative = inhibition": "inactive: -0.117%"}, {"molecule": "CN1CCN(C(=S)C(=O)Nc2ccc(Br)cc2)CC1", "Potency": "inconclusive: 37.9 µM [inhibitor, partial curve, poor fit]"}, {"molecule": "CC(=O)c1cccc(NC(=O)c2ccc3ccccc3c2)c1", "Potency": "active: 1.9 µM"}, {"molecule": "O=C(Nc1ccc(Br)cc1)Nc1nc2c(s1)CCCCCC2", "activity change, negative = inhibition": "inactive: 3.2%"}, {"molecule": "COc1ccc(-n2cnc3cc(N)ccc32)cc1", "Potency": "inconclusive: 30.1 µM [inhibitor, single point]"}, {"molecule": "Cc1c(/C=C2\\SC(=Nc3cccc(C(=O)O)c3)NC2=O)c2ccccc2n1C", "Potency": "inconclusive: 26.9 µM [inhibitor, single point]"}, {"molecule": "O=C(COCc1cc(-c2ccc3c(c2)OCO3)on1)Nc1cccc(O)c1", "Potency": "inconclusive: 23.9 µM [inhibitor, single point]"}, {"molecule": "Cc1cc(C)c(S(=O)(=O)ON2C(=O)c3ccccc3C2=O)cc1C", "Potency": "inconclusive: 10.7 µM [inhibitor, partial curve]"}, {"molecule": "C/C(=N\\NC(=O)c1nn(C)c(C)c1Br)c1ccc(NC(=O)c2ccccc2F)cc1", "activity change, negative = inhibition": "inactive: -12.6%"}, {"molecule": "CC(Cc1ccccc1)NC(=O)c1ccc([N+](=O)[O-])cc1", "note": "(stereo not given)", "Potency": "active: 12 µM"}, {"molecule": "Nc1nc(-c2ccc3c(c2)CCCC3)c(CC(=O)O)s1", "Potency": "active: 23.9 µM"}, {"molecule": "CN(C)/C=C(\\C#N)C(=O)N/N=C/c1ccccc1", "Potency": "inconclusive: 26.9 µM [inhibitor, single point]"}, {"molecule": "Cc1cccc(C(=O)n2nc(-c3ccco3)nc2NCc2ccccc2)c1", "activity change, negative = inhibition": "inactive: -6.07%"}, {"molecule": "Cn1c(NC(=S)Nc2ccccc2)nc2ccccc21", "Potency": "active: 6.75 µM"}, {"molecule": "CC(=O)c1cccc(-c2csc(N3CCC(C(N)=O)CC3)n2)c1", "Potency": "active: 16.9 µM"}, {"molecule": "COc1ccc(C(=O)NC(=S)NCCc2ccccc2)cc1", "Potency": "inconclusive: 16.9 µM [inhibitor, partial curve]"}, {"molecule": "c1cncc(Nc2c3ccccc3nc3ccccc23)c1", "Potency": "inconclusive: 23.9 µM [inhibitor, partial curve, poor fit]"}, {"molecule": "Cc1ccc(-n2nc(-c3ccc(OC(F)(F)F)cc3)cc2N)cc1C", "Potency": "inconclusive: 21.3 µM [inhibitor, single point]"}, {"molecule": "Cc1ccc(NN=Nc2nc3c([nH]2)c(=O)n(C)c(=O)n3C)cc1", "Potency": "inconclusive: 13.5 µM [inhibitor, partial curve]"}, {"molecule": "COc1ccc(N2CS(=O)(=O)/C(=C/N(C)C)C2=O)cc1", "Potency": "inconclusive: 23.9 µM [inhibitor, partial curve]"}, {"molecule": "Nc1cc(-c2nn[nH]n2)ccc1F", "activity change, negative = inhibition": "inactive: -1.01%"}, {"molecule": "COc1ccc(Cn2nc3n(c2=O)-c2ccccc2OC3)cc1", "Potency": "inconclusive: 30.1 µM [inhibitor, partial curve, poor fit]"}, {"molecule": "CN1C(=O)CSc2ccc(NC(=O)N3CCN(c4ccccn4)CC3)cc21", "activity change, negative = inhibition": "inactive: -5.41%"}, {"molecule": "COc1ccc(N2C(=O)c3ccccc3NC23CCCC3)cc1", "Potency": "inconclusive: 37.9 µM [inhibitor, partial curve, poor fit]"}, {"molecule": "CC1(C(=O)OCc2cc(=O)n3cc(Br)ccc3n2)CC1(Cl)Cl", "note": "(stereo not given)", "Potency": "active: 13.5 µM"}, {"molecule": "CC(=O)c1cccc(NC(=O)Nc2cccs2)c1", "Potency": "active: 19 µM"}, {"molecule": "NC(=O)C1CCN(c2nc(-c3cccc(Cl)c3)cs2)CC1", "Potency": "inconclusive: 37.9 µM [inhibitor, single point]"}, {"molecule": "O=C(CCCOc1ccccc1)N1CCN(c2ccccn2)CC1", "Potency": "active: 6.75 µM"}, {"molecule": "O=C(NCc1ccccc1Cl)C(=O)c1c[nH]c2ccccc12", "Potency": "inconclusive: 23.9 µM [inhibitor, single point]"}, {"molecule": "Cc1[nH]n(-c2ccccc2)c(=O)c1C=Nc1cccc(F)c1", "Potency": "inconclusive: 23.9 µM [inhibitor, single point]"}, {"molecule": "COc1ccc(C2OC(=O)c3ccccc3S2)cc1", "note": "(stereo not given)", "Potency": "inconclusive: 26.9 µM [inhibitor, partial curve]"}, {"molecule": "N/C(=N\\OC(=O)c1ccc2c(c1)OCO2)c1ccncc1", "Potency": "active: 1.51 µM"}, {"molecule": "CCOC(=O)c1ccccc1NC(=O)c1cn(-c2ccc(OC)cc2)c(=O)c2ccccc12", "activity change, negative = inhibition": "inactive: 2.79%"}, {"molecule": "NS(=O)(=O)c1ccc(CNC(=O)CSc2nc3ccc(Cl)cc3[nH]2)cc1", "activity change, negative = inhibition": "inactive: 6.53%"}, {"molecule": "COc1cc(C(C#N)N2N=C(c3ccccc3)CC2c2ccccc2)ccc1O", "note": "(stereo not given)", "Potency": "inconclusive: 37.9 µM [inhibitor, partial curve, poor fit]"}, {"molecule": "Cc1cccc(C)c1Nc1nnc(SCC(=O)NCc2cccs2)s1", "activity change, negative = inhibition": "inactive: -0.409%"}, {"molecule": "Cc1cccc2nc(-c3ccco3)oc(=O)c12", "Potency": "inconclusive: 19 µM [inhibitor, partial curve]"}, {"molecule": "Cn1nccc1C(=O)Oc1cccc(/C=N/NC(=O)c2ccccc2O)c1", "Potency": "active: 9.53 µM"}, {"molecule": "O=C(CCCCl)Nc1nc(-c2ccc3c(c2)OCCO3)cs1", "Potency": "active: 10.7 µM"}, {"molecule": "CCn1cc(C(=O)Nc2ncccc2O)c(=O)c2cc(F)c(N3CCN(C(=O)c4ccco4)CC3)cc21", "activity change, negative = inhibition": "inactive: 1.96%"}, {"molecule": "CC(C)(C)c1ccc(C(=O)NC(=S)NNC(=O)COc2ccccc2)cc1", "Potency": "inconclusive: 16.9 µM [inhibitor, partial curve]"}, {"molecule": "O=C(O)c1cc(Cl)ccc1-c1ccc(/C=C/c2cc(C(F)(F)F)[nH]c(=O)n2)o1", "Potency": "inconclusive: 16.9 µM [inhibitor, partial curve]"}, {"molecule": "CC(C)c1cnc2c(c1SCC(=O)c1ccc(Cl)cc1)c(=O)n(C)c(=O)n2C", "activity change, negative = inhibition": "inactive: -8.13%"}, {"molecule": "COc1ccccc1NC(=S)NNC(=O)c1ccc(O)cc1", "Potency": "inconclusive: 21.3 µM [inhibitor, partial curve, poor fit]"}, {"molecule": "COc1ccc(NC(=O)c2cc3ccccc3[nH]2)cc1", "Potency": "inconclusive: 2.69 µM [inhibitor, full curve]"}, {"molecule": "Cc1nn(C)c(Cl)c1C(=O)NC(C(=O)O)c1ccccc1", "note": "(stereo not given)", "activity change, negative = inhibition": "inactive: -3.35%"}, {"molecule": "CC(C)c1ccc2[nH]c(O)c(N=NC(=O)c3ccc(CSc4nncn4C)cc3)c2c1", "Potency": "inconclusive: 1.9 µM [inhibitor, full curve]"}, {"molecule": "CC(=O)c1sc(NC(=O)c2ccccc2F)nc1C", "Potency": "active: 4.78 µM"}, {"molecule": "Cc1ccc(NC(=O)CSc2nnc(CN3CCOCC3)n2C)cc1C", "activity change, negative = inhibition": "inactive: -3.08%"}, {"molecule": "COC(=O)C1=C(NC(C)=O)CCS1", "activity change, negative = inhibition": "inactive: 2.65%"}, {"molecule": "O=C1CCCc2nn(-c3ccccc3)nc21", "Potency": "inconclusive: 26.9 µM [inhibitor, single point]"}, {"molecule": "O=C(Nc1ccc(-c2nnc(-c3ccccc3)o2)cc1)C(F)(F)F", "Potency": "inconclusive: 1.69 µM [inhibitor, full curve]"}, {"molecule": "COc1ccccc1-c1noc(CCC(=O)Nc2cccc(C(F)(F)F)c2)n1", "Potency": "inconclusive: 23.9 µM [inhibitor, single point]"}, {"molecule": "COC(=O)c1[nH]c2ccc(C)cc2c1NC(=O)CN1CCN(c2ccc(F)cc2)CC1", "Potency": "inconclusive: 23.9 µM [inhibitor, partial curve, poor fit]"}, {"molecule": "CCN(C(=O)CN1C(=O)/C(=C/c2ccccc2)SC1=S)C1CCS(=O)(=O)C1", "note": "(stereo not given)", "Potency": "inconclusive: 30.1 µM [inhibitor, partial curve, poor fit]"}, {"molecule": "CCC(=O)NC(=S)Nc1cccc(NC(=O)c2ccccc2)c1", "Potency": "inconclusive: 26.9 µM [inhibitor, single point]"}, {"molecule": "COc1ccc2c(c1O)Cc1ccccc1C2=O", "Potency": "inconclusive: 10.7 µM [inhibitor, partial curve, poor fit]"}, {"molecule": "Cc1ccc(-c2nc(CSCC(=O)NCc3cccnc3)c(C)o2)cc1", "Potency": "inconclusive: 26.9 µM [inhibitor, single point]"}]}]}
